The record followed here is patent US20030092619A1 (Boehringer Ingelheim, published 2003).

This assay has as its target T1, p/CIP (UniProt O09000 1-1398, limits assumed).
T1 construct: In vitro translated, 35S-labeled; expressed in cells in the reporter assay; also called p/CIP/ACTR/AIB1
The assay is described as follows: GST pull-down, in vitro translated 35S-labeled coactivator. The procedure:
To further characterize the interaction of STAT6 and NCoA-1 and to determine the specificity, GST-pull-down experiments are performed. The three related members of the NCoA/SRC-1 family are tested for interaction with the STAT6 TAD. Therefore the transactivation domain of STAT6 is fused to GST and equal amounts of GST and GST-STAT6-TAD are incubated with in vitro synthesized, [³⁵S]-labeled coactivators. NCoA-1 strongly binds to GST-STAT6 TAD (FIG. 4, lane 7). In contrast, NCoA-2 and p/CIP fail to interact with STAT6 TAD (lane 8, 9). No binding is observed with GST alone (lane 4, 5, 6). These findings are consistent with the transient transfection experiments shown in FIG. 1, where NCoA-1, but not NCoA-2 and p/CIP enhances transactivation by STAT6. Taken together, NCoA-1 specifically interacts with STAT6 and serves as a coactivator for STAT6.

B1: GST (Glutathion S Transferase) alone (enzyme)
chain: not shown
notes: Control protein of the pull-downs, purified from E. coli
In the case of B1, the binding result is “no binding”.

B2: GST-STAT6 […] (other)
chain: [sequence of about 200 residues not given]SDLIEGRGIPEFDSSMSMQLGPDMVPQVYPPHSHSIPPYQGLSPEESVNVLSAFQEPHLQMPPSLGQMSLPFDQPHPQGLLPCQPQEHAVSSPDPLLCSDVTMVEDSCLSQPVTAFPQGTWIGEDIFPPLLPPTEQDLTKLLLEGQGESGGGSLGAQPLLQPSHYGQSGISMSHMDLRANPSW
notes: also called GST-STAT6 ([…]); GST-STAT6 TAD
On to B2, for which the binding result is “no binding”.
